According to PubChem BioAssay AID686971 (National Center for Advancing Translational Sciences (NCATS), 2013):
The campaign covered roughly 360,000 compounds. About 7,500 (2.1%) were called active. The shares of active, inactive and inconclusive entries below differ from those in the screen. Calls come from the whole dose curve; as a rule, active = well fitted cell-killing curve with a large enough effect; inconclusive = small, poorly fitted or top-dose-only effect, or effect the other way, or another doubt; inactive = no such curve, though single readings can be large or run the other way. No potency is given beside an inconclusive call; the fits are too rough.
Potency is the fitted concentration of half-maximal effect; tags give direction and shape of the fitted curve.

Experiment: qHTS for induction of synthetic lethality in tumor cells producing 2HG: qHTS for the HT-1080-IDH1KD cell line;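 for activity, negative = toxicity: 0% = DMSO wells and -100% = cell-free medium wells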
Conditions: HT-1080 IDH1 knockdown viability, ATP luminescence, 48 h; activity, negative = toxicity: at 46.1 µM (top of the series) unless noted
In short: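 IDH1KD HT-1080 cells, 750/well, RPMI + 5% FBS; compound pinned after 2 h settling; 48 h, 37 °C; CellTiter-Glo luminescence; % activity normalised to DMSO and no-cell wells; curves fitted, classed by r2 and efficacy.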
In the case of `CC1(C)CC2CC(C)(CN2S(=O)(=O)c2ccc(C(=O)Nc3cccc(S(=O)(=O)N4CCOCC4)c3)cc2)C1` (configuration not stated), the activity, negative = toxicity is reported as inconclusive: -34.7% [cytotoxic]. For `O=S(=O)(NCCSc1nnc(-c2ccco2)n1-c1ccccc1)c1ccccc1`, the Potency was inconclusive [cytotoxic, single point]. With `O=C(Oc1ccc[nH]c1=O)c1cccc(Cl)c1` the Potency was inconclusive [cytotoxic, single point]. For `O=C(OCC(=O)N1CCCC1)c1ccc(OC(F)(F)F)cc1`, the activity, negative = toxicity was inconclusive: 35.6%. With `Cn1c(Oc2ccccc2NCc2cc(Br)ccc2O)cc(=O)n(C)c1=O` the Potency was inconclusive [cytotoxic, single point]. In the case of `Cn1c(C(=O)Nc2ccc3c(c2)OCCO3)cc2c(=O)n(C)c3ccccc3c21`, the “activity, negative = toxicity” value is reported as inactive: -28.3%. In the case of `Cc1ccc(-c2nc3ccc(Br)cn3c2Cc2ccsc2)cc1`, the Potency is reported as inconclusive [cytotoxic, single point]. With `COC(=O)CCCC1=CC2=CC(=O)C(C)(OC(=O)c3cccs3)C(=O)C2=CN1C1CC1` (configuration not stated) the “activity, negative = toxicity” value was inactive: 1.09%. With `COc1ccc(OC)c(NC2=C(Cl)C(=O)N(Cc3ccccc3)C2=O)c1` the Potency was inconclusive [cytotoxic, partial curve, poor fit]. In the case of `COc1cc(Br)c(C(C)NC(=O)c2cccc(Br)c2)cc1OC` (configuration not stated), the Potency is reported as inconclusive [cytotoxic, single point]. With `CCNC(=O)NC(=O)COC(=O)c1ccccc1SCC(=O)NC(=O)NCC` the Potency was active: 29.1 µM. For `CN1C(=O)CC(c2ccco2)Sc2ccccc21` (configuration not stated), the Potency was inconclusive [cytotoxic, partial curve]. In the case of `Cc1ccc(CS(=O)(=O)c2ncc(Cl)c(C(=O)Nc3nnc(C)s3)n2)cc1`, the Potency is reported as active: 20.6 µM. For `O=C(COC(=O)C1CCN(S(=O)(=O)c2ccc3c(c2)OCCO3)CC1)Nc1cccc2ccccc12`, the “activity, negative = toxicity” value was inactive: 8.04%. In the case of `C=CCNC(=S)Nc1ccc(OC(F)F)c(Cl)c1`, the Potency is reported as inconclusive [cytotoxic, single point]. With `O=C(C1CCCCC1)N1CCC(c2nc3ccccc3[nH]2)CC1` the Potency was inconclusive [cytotoxic, single point]. With `CC1(Cc2cc(Cl)ccc2C(F)(F)F)C(=O)Nc2cc(C(F)(F)F)ccc21` (configuration not stated) the Potency was active: 20.6 µM. In the case of `O=C(NNC(=O)C12CC3CC(CC(C3)C1)C2)c1ccccc1O`, the Potency is reported as inconclusive [cytotoxic, single point]. With `CCC(CO)Oc1cc(NCc2cccc(Cl)c2)c2ncn(C(C)C)c2c1` (configuration not stated) the Potency was inconclusive [cytotoxic, single point]. For `COc1ccc(CNC(=O)C[C@H]2C[C@H](C(=O)N3CCCCC3)[C@@]3(C)c4[nH]c5cc(CCC(=O)N(C)C)ccc5c4CCN3C2=O)cc1OC`, the “activity, negative = toxicity” value was inactive: 5.34%. For `CCOc1ccc2oc(C(=O)NNC(=O)c3csc(N4CCOCC4)n3)c(C)c2c1`, the “activity, negative = toxicity” value was inactive: -23.7%. In the case of `C[C@H]1CN([C@@H](C)CO)C(=O)CCCn2nncc2CO[C@@H]1CN(C)Cc1ccc(-c2ccccc2)cc1`, the Potency is reported as inconclusive [cytotoxic, single point]. For `O=C(NC1=NCCS1)c1cccc(OC(F)F)c1`, the “activity, negative = toxicity” value was inactive: 2.21%. For `COC(=O)c1cc(=O)n(Cc2ccco2)c(=Nc2ccc(F)cc2)s1`, the Potency was inconclusive [cytotoxic, single point]. With `CNC(=O)c1cccn1-c1ccsc1C(=O)OC` the “activity, negative = toxicity” value was inactive: 16%. In the case of `CCOC(=O)N1CCN(C(=O)C2CCCN(S(=O)(=O)c3ccc(F)cc3)C2)CC1` (configuration not stated), the “activity, negative = toxicity” value is reported as inactive: 1.85%. For `CCOC(=O)c1ccc2c(c1)nc(C1CCN(S(=O)(=O)c3cccs3)CC1)n2CC`, the Potency was inconclusive [cytotoxic, single point]. With `Cc1cccc(COC[C@H](Cc2ccccc2)N2CCN(C(=O)c3ccc(C(F)(F)F)cc3)CCC2=O)c1` the Potency was inconclusive [cytotoxic, single point]. For `COC(=O)c1ccc(CSc2nc3c(c(=O)[nH]2)CCC3)cc1`, the “activity, negative = toxicity” value was inactive: 22.6%. For `CC(C)Cn1c2c(c(=O)[nH]c1=O)C(C(F)(F)F)(C(F)(F)F)N=C(CCC1CCCCC1)N2`, the Potency was inconclusive [cytotoxic, full curve, poor fit]. For `Cc1cccc(-c2n[nH]c(=S)n2/N=C/c2ccc(C)s2)c1`, the Potency was inconclusive [cytotoxic, single point]. With `Nn1c(SCC(=O)Nc2nccs2)nnc1-c1cccnc1` the “activity, negative = toxicity” value was inactive: 4.06%. For `Cc1ccc(S(=O)(=O)N2c3ccccc3-c3c(ssc3=S)C2(C)C)cc1`, the Potency was inconclusive [cytotoxic, single point]. For `CCSc1nnc(NC(=O)CCNS(=O)(=O)c2ccccc2F)s1`, the “activity, negative = toxicity” value was inactive: 4.29%. In the case of `Cc1ccc(-c2n[nH]c(=O)c3ccccc23)cc1N`, the activity, negative = toxicity is reported as inconclusive: -31.1% [cytotoxic]. With `CC(C)c1ccc(CNC(=O)CCc2ccccc2)cc1` the “activity, negative = toxicity” value was inactive: 0.547%. With `COC(=O)c1cc(=O)n(-c2ccc(F)cc2)c(=Nc2ccc(F)cc2)s1` the Potency was inconclusive [cytotoxic, single point]. In the case of `c1csc(-c2noc(CN3CCc4sccc4C3)n2)c1`, the “activity, negative = toxicity” value is reported as inactive: 10.9%. In the case of `O=Cc1[nH]c2ccccc2c1N(C(=O)CCl)c1ccccc1`, the Potency is reported as active: 23.1 µM. For `CCC(=O)N1CCCC1(C)C(=O)Nc1cccc(Oc2ccccc2)c1` (configuration not stated), the Potency was inconclusive [rising, partial curve]. In the case of `Cc1ccc2oc(=O)cc(CN3CCOCC3)c2c1`, the “activity, negative = toxicity” value is reported as inactive: 1.03%. In the case of `CCC(=O)N1CCN(c2nc3ccc(Br)cc3s2)CC1`, the Potency is reported as inconclusive [cytotoxic, single point]. For `N#Cc1nc(-c2ccc(Cl)cc2)oc1NCc1cccc2c1OCO2`, the Potency was inconclusive [cytotoxic, single point]. For `O=C(c1ccco1)N1c2ccccc2Sc2ccccc21`, the Potency was inconclusive [cytotoxic, single point]. For `CC1=Nc2cc(C(=O)NCCCOC(C)C)ccc2Sc2ccc(C)cc21`, the Potency was active: 1.03 µM. For `CCC(=O)N/C(=N\OCc1ccc(F)cc1)c1nonc1NC(=O)CC`, the “activity, negative = toxicity” value was inactive: -2.6%. In the case of `Cc1ccc(C(C)C)c(OCCN2CCc3ccccc3C2)c1`, the Potency is reported as inconclusive [cytotoxic, partial curve].
